Source: patent US10508143 (ALETA BIOTHERAPEUTICS, dated 2019)
Each block holds one binder with its values, some of them ahead of it.

Assays:
[1] = target: T1, EGFR expressed on cells (A431 cells; 293T cells transfected with EGFR cDNA) (UniProt P00533); test: flow cytometry on A431 cells, trastuzumab-PE
T1 construct: whole, on cells; also called EGFR-positive cell

[2] = target: T2, CD20 on stable transfectant line 293-CD20 (UniProt P11836 1-297); test: flow cytometry on 293-CD20 cells, anti-huIgG-FITC
T2 construct: whole, on cells; also called CD20 expressing 293 cells
T2 sequence (looked up): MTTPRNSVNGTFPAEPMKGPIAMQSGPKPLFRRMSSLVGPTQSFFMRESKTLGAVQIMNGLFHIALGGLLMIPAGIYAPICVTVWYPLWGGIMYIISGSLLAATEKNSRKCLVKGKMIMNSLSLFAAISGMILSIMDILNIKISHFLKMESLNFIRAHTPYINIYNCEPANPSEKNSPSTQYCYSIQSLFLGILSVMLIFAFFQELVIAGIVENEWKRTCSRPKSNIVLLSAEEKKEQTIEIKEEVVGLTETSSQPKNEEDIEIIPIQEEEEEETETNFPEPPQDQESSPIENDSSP

binding result [1]: binds
B1: Her2-D4-Panitumumab scFv (VH/VL) (scFv)
chain: NRPEDECVGEGLACHQLCARGHCWGPGPTQCVNCSQFLRGQECVEECRVLQGLPREYVNARHCLPCHPECQPQNGSVTCFGPEADQCVACAHYKDPPFCVARCPSGVKPDLSY[about 40 residues omitted]GGGGSGGGGSGGGGSGGGGSQVQLQESGPGDVKPSETLSLTCTVSGGSVSSGDYYWTWIRQSPGKGLEWIGHIYYSGNTNYNPSLKSRLTISIDTSKTTFSLQLSSVTGEDTAIYYCVRDRVTGAFDIWGQGTTVTVSSASTGGGGSGGGGSGGGGSGGGGSDIQMTQSPSSLEASVGDRVTITCQASQDISNYLNWYQQKPGKSPKLLIYDASNLETGVPDRFSGSGSGTDFTFTISSLQAEDEGTYFCQHFDHLPLAFGGGTKLEIKRTHHHHHH
notes: Only domain 4 of the Her2 extracellular domain; C-terminal His tag; also called construct #58; #58

B2: CD19-D1+2-Leu16 scFv (VL/VH)-huIgGFc (Fc fusion)
chain: PEEPLVVKVEEGDNAVLQCLKGTSDGPTQQLTWSRESPLKPFLKLSLGLPGLGIHMRPLAIWLFIFNVSQQMGGFYLCQPGPPSEKAWQPGWTVNVEGSGELFRWNVSDLGGLGCGLKNRSSEGPSSPSGKLMSPKLYVWAKDRPEIWEGEPPCLPPRDSLNQSLSQDLTMAPGSTLWLSCGVPPDSVSRGPLSWTHVHPKGPKSLLSLELKDDRPARDMWVMETGLLLPRATAQDAGKYYCHRGNLTMSFHLEITARPGGGGSGGGGSGGGGSGGGGSDIELTQSPTILSASPGEKVTMTCRASSSVNYMDWYQKKPGSSPKPWIYATSNLASGVPARFSGSGSGTSYSLTISRVEAEDAATYYCQQWSFNPPTFGGGTKLEIKRGGGGSGGGGSGGGGSMAQVKLQESGAELVKPGASVKMSCKASGYTFTSYNMHWVKQTPGQGLEWIGAIYPGNGDTSYNQKFKGKATLTADKSSSTAYMQLSSLTSEDSADYYCARSNYYGSSYWFFDVWGQGTTVTVSSAAAGDPA[human IgG1 Fc with C220P (EU numbers) omitted]
notes: also called construct #84; #84
binding result [2]: no binding (tested: 200 µl fusion protein)

binding result [1]: binds
B3: Her2-ECD-Panitumumab scFv (VH/VL) (scFv)
chain: [about 650 residues omitted]GGGGSGGGGSGGGGSGGGGSQVQLQESGPGDVKPSETLSLTCTVSGGSVSSGDYYWTWIRQSPGKGLEWIGHIYYSGNTNYNPSLKSRLTISIDTSKTTFSLQLSSVTGEDTAIYYCVRDRVTGAFDIWGQGTTVTVSSASTGGGGSGGGGSGGGGSGGGGSDIQMTQSPSSLEASVGDRVTITCQASQDISNYLNWYQQKPGKSPKLLIYDASNLETGVPDRFSGSGSGTDFTFTISSLQAEDEGTYFCQHFDHLPLAFGGGTKLEIKRTHHHHHH
notes: C-terminal His tag; also called construct #57; #57
